# In the supplement of paper PMC4604168 (melanoma cell lines):
# This is one part of the list. Most values come without repeats; read them as rough.
# Key:
# Assay in all cases: cell count relative to DMSO control; melanoma cells; higher = more viable cells
# Conditions in all cases: library dose: standard library concentration; 72 h
# SkMel28 = system: SkMel28
# SkMel2 = system: SkMel2
# SkMel30 = system: SkMel30
# SkMel5 = system: SkMel5
# UACC257 = system: UACC257
# UACC62 = system: UACC62
# WM115 = system: WM115
# WM1716 = system: WM1716
# WM1745 = system: WM1745
# WM3526 = system: WM3526
# 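Note: cells treated in 1,536-well plates, then fixed and DAPI-stained, with nuclei counted from automated high-throughput microscope images.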
Structure (SMILES),cell count (SkMel28),cell count (SkMel2),cell count (SkMel30),cell count (SkMel5),cell count (UACC257),cell count (UACC62),cell count (WM115),cell count (WM1716),cell count (WM1745),cell count (WM3526)
"C#Cc1cccc(Nc2ncnc3cc(OCCOC)c(OCCOC)cc23)c1 [erlotinib] + CCN(CC)CCCCNc1ncc2cc(-c3cc(OC)cc(OC)c3)c(NC(=O)NC(C)(C)C)nc2n1 [PD173074] (first compound 4 µM, partner dose 0.5 µM)",75.9%,92.3%,74.3%,69.6%,94.5%,83.4%,83.6%,99.4%,55.3%,81.9%
"Clc1ccc(Nc2nnc(Cc3ccncc3)c3ccccc23)cc1 [vatalanib] + CC(C)(C)c1cnc(CSc2cnc(NC(=O)C3CCNCC3)s2)o1 [SNS-032] (first compound 10 µM, partner dose 0.05 µM)",53.7%,55.5%,70.5%,34.6%,59.4%,64.4%,54.8%,67.4%,36.1%,77.6%
"O=C(CCCCCCC(=O)Nc1ccccc1)NO [vorinostat] + CN(C)S(=O)(=O)c1ccc2c(c1)/C(=C/c1cc3c([nH]1)CCCC3)C(=O)N2 [SU6656] (first compound 0.4 µM, partner dose 2 µM)",38.6%,58.2%,74.9%,58.7%,67.1%,69.5%,33.4%,36.9%,82.5%,62.3%
"OCc1c[nH]c2ccccc12 [Indole-3-carbinol] + C#Cc1cccc(Nc2ncnc3cc(OCCOC)c(OCCOC)cc23)c1 [erlotinib] (first compound 4 µM, partner dose 4 µM)",72.1%,76.5%,67.3%,46%,104%,72.9%,83.3%,92.7%,45.5%,76.6%
"C#Cc1cccc(Nc2ncnc3cc(OCCOC)c(OCCOC)cc23)c1 [erlotinib] + CC(C)(C)c1cnc(CSc2cnc(NC(=O)C3CCNCC3)s2)o1 [SNS-032] (first compound 4 µM, partner dose 0.05 µM)",49.9%,59.3%,106%,64.8%,98.8%,57.7%,59.9%,86.9%,46.4%,84.7%
"Clc1ccc(Nc2nnc(Cc3ccncc3)c3ccccc23)cc1 [vatalanib] + COc1cc2c(Oc3ccc4[nH]c(C)cc4c3F)ncnc2cc1OCCCN1CCCC1 [cediranib] (first compound 10 µM, partner dose 2 µM)",77.9%,78.2%,78.6%,66.7%,87.7%,80.6%,88.5%,83.5%,42.5%,84.1%
"OCc1c[nH]c2ccccc12 [Indole-3-carbinol] + CO[C@@H]1[C@H](N(C)C(=O)c2ccccc2)C[C@H]2O[C@]1(C)n1c3ccccc3c3c4c(c5c6ccccc6n2c5c31)C(=O)NC4 [Midostaurin] (first compound 4 µM, partner dose 0.4 µM)",61.6%,52.7%,60%,61.7%,62.8%,72.5%,37.6%,45%,37.4%,93.3%
"Nc1cccc2c1CN(C1CCC(=O)NC1=O)C2=O (stereo not given) [lenalidomide] + O=C(Nc1cccc(Cl)c1)Nc1ncc(CCNc2ncnc3ccsc23)s1 [SNS314] (first compound 5 µM, partner dose 0.004 µM)",75.5%,79.2%,93.7%,75.9%,67%,63.6%,38.8%,59.4%,63%,77.9%
"O=C(CCCCCCC(=O)Nc1ccccc1)NO [vorinostat] + COC(=O)c1sccc1S(=O)(=O)Nc1ccc(Nc2ccccc2)cc1OC [GSK0660] (first compound 0.4 µM, partner dose 5 µM)",50.4%,80%,104%,74.7%,75.4%,80.4%,89.5%,88.9%,86%,76.8%
"Cn1c(Nc2ccc(C(F)(F)F)cc2)nc2cc(Oc3ccnc(-c4ncc(C(F)(F)F)[nH]4)c3)ccc21 + COc1ccc(COc2ccc(Cc3cnc(N)nc3N)cc2OC)cc1 [GW2580] (first compound 0.4 µM, partner dose 5 µM)",38.8%,51.5%,57.4%,43.6%,82.9%,67%,46%,81.2%,63.4%,50.8%
"COCC[n+]1c2c(n(Cc3cnccn3)c1C)C(=O)c1ccccc1C2=O + COc1ccc(-c2ccc3c(N4CCOCC4)nc(N4C[C@@H](C)O[C@@H](C)C4)nc3n2)cc1CO [KU0063794] (first compound 0.002 µM, partner dose 0.1 µM)",42.2%,36.8%,51.3%,51.4%,24.8%,95.3%,67.9%,70.1%,73.1%,52.1%
"O=C(CCCCCCC(=O)Nc1ccccc1)NO [vorinostat] + O=C(Nc1cccc(Cl)c1)Nc1ncc(CCNc2ncnc3ccsc23)s1 [SNS314] (first compound 0.4 µM, partner dose 0.004 µM)",36.5%,76.2%,82.4%,57.8%,51.7%,77.2%,37.2%,39.9%,59.9%,60.7%
"Cn1c(Nc2ccc(C(F)(F)F)cc2)nc2cc(Oc3ccnc(-c4ncc(C(F)(F)F)[nH]4)c3)ccc21 + CC(C)CCN1c2nc(Nc3cc(F)c(O)c(F)c3)ncc2N(C)C(=O)C1C [BID1870] (first compound 0.4 µM, partner dose 1 µM)",26.6%,38.9%,62%,32.4%,70.9%,64.3%,35%,65.9%,54.8%,36.8%
"Clc1ccc(Nc2nnc(Cc3ccncc3)c3ccccc23)cc1 [vatalanib] + CN(NC(=O)CC(=O)NN(C)C(=S)c1ccccc1)C(=S)c1ccccc1 [STA4783] (first compound 10 µM, partner dose 0.03 µM)",62%,76.8%,72.4%,66.6%,88.7%,62.2%,22.4%,5.59%,49.5%,74.7%
"Cn1c(Nc2ccc(C(F)(F)F)cc2)nc2cc(Oc3ccnc(-c4ncc(C(F)(F)F)[nH]4)c3)ccc21 + O=C(O)c1ccc(-c2c[nH]c3ncc(-c4ccccc4)cc23)cc1C1CCCC1 [GSK650394] (first compound 0.4 µM, partner dose 0.8 µM)",41%,53.1%,72.5%,37.1%,59.9%,56.5%,38.2%,57.5%,81.3%,44.4%
"Nc1cccc2c1CN(C1CCC(=O)NC1=O)C2=O (stereo not given) [lenalidomide] + C[C@@H]1CCN(C(=O)CC#N)C[C@@H]1N(C)c1ncnc2[nH]ccc12 [CP690550] (first compound 5 µM, partner dose 5 µM)",102%,107%,90.3%,91.7%,111%,100%,104%,123%,78.7%,138%
"Cn1c(Nc2ccc(C(F)(F)F)cc2)nc2cc(Oc3ccnc(-c4ncc(C(F)(F)F)[nH]4)c3)ccc21 + CCc1ccc(CCOc2ccc(CC3SC(=O)NC3=O)cc2)nc1 [pioglitazone] (first compound 0.4 µM, partner dose 10 µM)",27.4%,58.5%,68%,42%,80%,53%,37.7%,76.6%,57.5%,42.3%
"Cn1c(Nc2ccc(C(F)(F)F)cc2)nc2cc(Oc3ccnc(-c4ncc(C(F)(F)F)[nH]4)c3)ccc21 + Oc1cc(-c2nc(-c3ccccc3)[nH]c2-c2ccncc2)ccc1Cl [L779450] (first compound 0.4 µM, partner dose 1 µM)",32.2%,3.89%,58.2%,30.7%,66%,40.3%,24%,50.8%,45.6%,28.1%
"COCC[n+]1c2c(n(Cc3cnccn3)c1C)C(=O)c1ccccc1C2=O + Nc1cccc2c1CN(C1CCC(=O)NC1=O)C2=O [lenalidomide] (first compound 0.002 µM, partner dose 5 µM)",33.5%,29.6%,71.8%,37%,20.3%,61.8%,70.4%,65%,86.6%,36.2%
"Clc1ccc(Nc2nnc(Cc3ccncc3)c3ccccc23)cc1 [vatalanib] + Cn1nnc2c(C(N)=O)ncn2c1=O [temozolomide] (first compound 10 µM, partner dose 10 µM)",39.2%,93.3%,58.6%,78.9%,74.9%,44.4%,77.6%,55.6%,58.2%,96.7%
"Nc1cccc2c1CN(C1CCC(=O)NC1=O)C2=O (stereo not given) [lenalidomide] + Cc1cc(N2CCOCC2)cc2[nH]c(-c3c(NC[C@@H](O)c4cccc(Cl)c4)cc[nH]c3=O)nc12 [BMS536924] (first compound 5 µM, partner dose 1 µM)",69.7%,66.4%,79.7%,89.4%,94%,113%,85.6%,94.1%,38.6%,68.4%
"O=C(CCCCCCC(=O)Nc1ccccc1)NO [vorinostat] + O=c1cc(-c2cccc3c2Sc2ccccc2S3)oc(N2CCOCC2)c1 [KU55933] (first compound 0.4 µM, partner dose 5 µM)",48.3%,71%,114%,71.3%,84.1%,83.5%,95%,81.5%,81.2%,74.4%
"Cn1c(Nc2ccc(C(F)(F)F)cc2)nc2cc(Oc3ccnc(-c4ncc(C(F)(F)F)[nH]4)c3)ccc21 + COc1ccc(-c2ccc3c(N4CCOCC4)nc(N4C[C@@H](C)O[C@@H](C)C4)nc3n2)cc1CO [KU0063794] (first compound 0.4 µM, partner dose 0.1 µM)",32.2%,48.8%,48.9%,44.8%,74.5%,66.5%,41.4%,65.3%,60.7%,38.8%
"O=C(CCCCCCC(=O)Nc1ccccc1)NO [vorinostat] + CCN(CC)CCCCNc1ncc2cc(-c3cc(OC)cc(OC)c3)c(NC(=O)NC(C)(C)C)nc2n1 [PD173074] (first compound 0.4 µM, partner dose 0.5 µM)",65.2%,86.3%,82.8%,82.1%,70.6%,87.7%,72.4%,92.5%,79.5%,69.3%
"O=C(CCCCCCC(=O)Nc1ccccc1)NO [vorinostat] + N#Cc1c(O)c2c(-c3ccc(-c4ccccc4O)cc3)csc2[nH]c1=O [A769662] (first compound 0.4 µM, partner dose 10 µM)",29.4%,73.1%,79.9%,74.7%,60%,96%,84.8%,102%,85%,82.8%
"Cn1c(Nc2ccc(C(F)(F)F)cc2)nc2cc(Oc3ccnc(-c4ncc(C(F)(F)F)[nH]4)c3)ccc21 + Cc1cc([N+](=O)[O-])ccc1NS(=O)(=O)c1cc(Cl)ccc1Cl [FH535] (first compound 0.4 µM, partner dose 5 µM)",26.8%,41.5%,65.2%,33.2%,54.2%,53.9%,26.4%,56.8%,42.9%,37.9%
